# Reference: the supplement of paper PMC8728848
# This is one part of the list.
# B1: DGL (Dioclea grandiflora), P08902 (protein)
# chain: ADTIVAVELDSYPNTDIGDPNYPHIGIDIKSIRSKSTARWNMQTGKVGTVHISYNSVAKRLSAVVSYSGSSSTTVSYDVDLNNVLPEWVRVGLSATTGLYKETNTILSWSFTSKLKTNSIADENSLHFSFHKFSQNPKDLILQGDAFTDSDGNLELTKVSSSGDPQGNSVGRALFYAPVHIWESSAVVASFDATFTFLIKSPDREPADGITFFIANTDTSIPSGSGGRLLGLFPDAN
# What was measured:
# Test in all cases: glycan array binding signal (z-score within array); higher = stronger binding
# Settings in all cases: glycan notation: IUPAC condensed, linker removed
# [1] = molecular target: Man(a1-3)[Man(a1-6)]Man(a1-6)[Man(a1-3)]Man(b1-4)GlcNAc(b1-4)GlcNAc
# Procedure, shortened: (§1)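 The Consortium for Functional Glycomics database supplied 3228 glycan arrays, of which those lacking an available protein sequence were dropped. The binding signal, a within-array Z-score, was averaged across arrays of the same protein sequence and across linkers. Negative scores can be read as non-binding.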
# [2] = molecular target: Man(a1-3)[Man(a1-6)]Man(b1-4)GlcNAc(b1-4)GlcNAc
# Procedure, shortened: as §1
# Man(a1-6)Man = molecular target: Man(a1-6)Man
# Procedure, shortened: as §1
# Man(b1-4)GlcNAc = molecular target: Man(b1-4)GlcNAc
# Procedure, shortened: as §1
# Neu5Ac(a2-3)Gal = molecular target: Neu5Ac(a2-3)Gal
# Procedure, shortened: as §1
# [3] = molecular target: Neu5Ac(a2-3)Gal(b1-3)GalNAc
# Procedure, shortened: as §1
# [4] = molecular target: Neu5Ac(a2-3)Gal(b1-3)GalNAc(b1-3)Gal(a1-4)Gal(b1-4)Glc
# Procedure, shortened: as §1
# [5] = molecular target: Neu5Ac(a2-3)Gal(b1-3)GalNAc(b1-3)Gal(b1-4)GlcNAc
# Procedure, shortened: as §1
# [6] = molecular target: Neu5Ac(a2-3)Gal(b1-3)GalNAc(b1-4)[Neu5Ac(a2-3)]Gal(b1-4)Glc
# Procedure, shortened: as §1
# [7] = molecular target: Neu5Ac(a2-3)Gal(b1-3)GalNAc6S
# Procedure, shortened: as §1
# [8] = molecular target: Neu5Ac(a2-3)Gal(b1-3)GlcNAc
# Procedure, shortened: as §1
# [9] = molecular target: Neu5Ac(a2-3)Gal(b1-3)GlcNAc(b1-3)Gal(b1-3)GlcNAc
# Procedure, shortened: as §1
# [10] = molecular target: Neu5Ac(a2-3)Gal(b1-3)GlcNAc6S
# Procedure, shortened: as §1
# [11] = molecular target: Neu5Ac(a2-3)Gal(b1-3)[Fuc(a1-4)]GlcNAc
# Procedure, shortened: as §1
# [12] = molecular target: Neu5Ac(a2-3)Gal(b1-3)[Fuc(a1-4)]GlcNAc(b1-3)Gal(b1-3)[Fuc(a1-4)]GlcNAc
# Procedure, shortened: as §1
# [13] = molecular target: Neu5Ac(a2-3)Gal(b1-3)[Fuc(a1-4)]GlcNAc(b1-3)Gal(b1-4)[Fuc(a1-3)]GlcNAc
# Procedure, shortened: as §1
# [14] = molecular target: Neu5Ac(a2-3)Gal(b1-3)[Neu5Ac(a2-3)Gal(b1-4)]GlcNAc
# Procedure, shortened: as §1
# [15] = molecular target: Neu5Ac(a2-3)Gal(b1-3)[Neu5Ac(a2-6)]GalNAc
# Procedure, shortened: as §1
# Neu5Ac(a2-3)Gal(b1-4)Glc = molecular target: Neu5Ac(a2-3)Gal(b1-4)Glc
# Procedure, shortened: as §1
# [16] = molecular target: Neu5Ac(a2-3)Gal(b1-4)GlcNAc
# Procedure, shortened: as §1
# [17] = molecular target: Neu5Ac(a2-3)Gal(b1-4)GlcNAc(b1-2)Man(a1-3)[GlcNAc(b1-2)Man(b1-4)GlcNAc(b1-2)Man(a1-6)]Man(b1-4)GlcNAc(b1-4)GlcNAc
# Procedure, shortened: as §1
# [18] = molecular target: Neu5Ac(a2-3)Gal(b1-4)GlcNAc(b1-2)Man(a1-3)[Neu5Ac(a2-6)Gal(b1-4)GlcNAc(b1-2)Man(a1-6)]Man(b1-4)GlcNAc(b1-4)GlcNAc
# Procedure, shortened: as §1
# [19] = molecular target: Neu5Ac(a2-3)Gal(b1-4)GlcNAc(b1-3)Gal(b1-3)GlcNAc
# Procedure, shortened: as §1
# [20] = molecular target: Neu5Ac(a2-3)Gal(b1-4)GlcNAc(b1-3)Gal(b1-4)GlcNAc
# Procedure, shortened: as §1
# [21] = molecular target: Neu5Ac(a2-3)Gal(b1-4)GlcNAc(b1-3)Gal(b1-4)GlcNAc(b1-3)Gal(b1-4)GlcNAc
# Procedure, shortened: as §1
# [22] = molecular target: Neu5Ac(a2-3)Gal(b1-4)GlcNAc(b1-3)Gal(b1-4)[Fuc(a1-3)]GlcNAc
# Procedure, shortened: as §1
# [23] = molecular target: Neu5Ac(a2-3)Gal(b1-4)GlcNAc(b1-3)GalNAc
# Procedure, shortened: as §1
# [24] = molecular target: Neu5Ac(a2-3)Gal(b1-4)GlcNAc(b1-6)[Gal(b1-3)]GalNAc
# Procedure, shortened: as §1
# [25] = molecular target: Neu5Ac(a2-3)Gal(b1-4)GlcNAc(b1-6)[Neu5Ac(a2-3)Gal(b1-3)]GalNAc
# Procedure, shortened: as §1
# [26] = molecular target: Neu5Ac(a2-3)Gal(b1-4)GlcNAc6S
# Procedure, shortened: as §1
# [27] = molecular target: Neu5Ac(a2-3)Gal(b1-4)[Fuc(a1-3)]GlcNAc
# Procedure, shortened: as §1
# [28] = molecular target: Neu5Ac(a2-3)Gal(b1-4)[Fuc(a1-3)]GlcNAc(b1-3)Gal
# Procedure, shortened: as §1
# [29] = molecular target: Neu5Ac(a2-3)Gal(b1-4)[Fuc(a1-3)]GlcNAc(b1-3)Gal(b1-4)GlcNAc
# Procedure, shortened: as §1
# [30] = molecular target: Neu5Ac(a2-3)Gal(b1-4)[Fuc(a1-3)]GlcNAc(b1-3)Gal(b1-4)[Fuc(a1-3)]GlcNAc(b1-3)Gal(b1-4)[Fuc(a1-3)]GlcNAc
# Procedure, shortened: as §1
# [31] = molecular target: Neu5Ac(a2-3)Gal(b1-4)[Fuc(a1-3)]GlcNAc(b1-6)[Gal(b1-3)]GalNAc
# Procedure, shortened: as §1
# [32] = molecular target: Neu5Ac(a2-3)Gal(b1-4)[Fuc(a1-3)]GlcNAc(b1-6)[Neu5Ac(a2-3)Gal(b1-3)]GalNAc
# Procedure, shortened: as §1
# [33] = molecular target: Neu5Ac(a2-3)Gal(b1-4)[Fuc(a1-3)]GlcNAc6S
# Procedure, shortened: as §1
# [34] = molecular target: Neu5Ac(a2-3)Gal6S(b1-4)GlcNAc
# Procedure, shortened: as §1
# [35] = molecular target: Neu5Ac(a2-3)Gal6S(b1-4)[Fuc(a1-3)]GlcNAc
# Procedure, shortened: as §1
# Neu5Ac(a2-3)GalNAc = molecular target: Neu5Ac(a2-3)GalNAc
# Procedure, shortened: as §1
# [36] = molecular target: Neu5Ac(a2-3)GalNAc(b1-4)GlcNAc
# Procedure, shortened: as §1
# [37] = molecular target: Neu5Ac(a2-3)[GalNAc(b1-4)]Gal(b1-4)Glc
# Procedure, shortened: as §1
# [38] = molecular target: Neu5Ac(a2-3)[GalNAc(b1-4)]Gal(b1-4)GlcNAc
# Procedure, shortened: as §1
binder,measurement,setting,value
B1,glycan array binding signal (z-score),[1],1.08
same,glycan array binding signal (z-score),[2],3.07
same,glycan array binding signal (z-score),Man(a1-6)Man,-0.179
same,glycan array binding signal (z-score),Man(b1-4)GlcNAc,-0.186
same,glycan array binding signal (z-score),Neu5Ac(a2-3)Gal,-0.18
same,glycan array binding signal (z-score),[3],-0.175
same,glycan array binding signal (z-score),[4],-0.171
same,glycan array binding signal (z-score),[5],-0.181
same,glycan array binding signal (z-score),[6],-0.172
same,glycan array binding signal (z-score),[7],-0.175
same,glycan array binding signal (z-score),[8],-0.173
same,glycan array binding signal (z-score),[9],-0.179
same,glycan array binding signal (z-score),[10],-0.179
same,glycan array binding signal (z-score),[11],-0.184
same,glycan array binding signal (z-score),[12],-0.164
same,glycan array binding signal (z-score),[13],-0.174
same,glycan array binding signal (z-score),[14],-0.175
same,glycan array binding signal (z-score),[15],-0.089
same,glycan array binding signal (z-score),Neu5Ac(a2-3)Gal(b1-4)Glc,-0.172
same,glycan array binding signal (z-score),[16],-0.175
same,glycan array binding signal (z-score),[17],-0.162
same,glycan array binding signal (z-score),[18],-0.168
same,glycan array binding signal (z-score),[19],-0.171
same,glycan array binding signal (z-score),[20],-0.177
same,glycan array binding signal (z-score),[21],-0.183
same,glycan array binding signal (z-score),[22],-0.163
same,glycan array binding signal (z-score),[23],-0.18
same,glycan array binding signal (z-score),[24],-0.179
same,glycan array binding signal (z-score),[25],-0.169
same,glycan array binding signal (z-score),[26],-0.175
same,glycan array binding signal (z-score),[27],-0.174
same,glycan array binding signal (z-score),[28],-0.181
same,glycan array binding signal (z-score),[29],-0.169
same,glycan array binding signal (z-score),[30],-0.178
same,glycan array binding signal (z-score),[31],-0.164
same,glycan array binding signal (z-score),[32],-0.17
same,glycan array binding signal (z-score),[33],-0.18
same,glycan array binding signal (z-score),[34],-0.179
same,glycan array binding signal (z-score),[35],-0.178
same,glycan array binding signal (z-score),Neu5Ac(a2-3)GalNAc,-0.171
same,glycan array binding signal (z-score),[36],-0.172
same,glycan array binding signal (z-score),[37],-0.175
same,glycan array binding signal (z-score),[38],-0.166
